Laboratory results reported in the supplement of paper PMC11417369.
± gives the standard deviation of the averaged measurements. The list shows a part of the results.

system: PfAP2-G AP2 domain (GST-tagged); assay: gcPBM binding intensity (ln(normalized median fluorescence intensity)); higher = stronger DNA binding
Outline: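 GST-fused DNA-binding domains of P. falciparum, expressed in E. coli, were applied at about 25 μg on average for 1 h to an Agilent 4 × 180k array of primer-extended double-stranded 36-bp intergenic genomic probes and negative controls. Binding intensity is the highest Masliner-normalised natural-log median intensity across replicate spots of either probe orientation, measured with Alexa488 anti-GST antibody and a 488 nm scan.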

In order of falling “gcPBM binding intensity (ln)” value:
1. TTCTTTAAAATATTATGTACACATTGCGAACAGTTT [XGTACX_site5418]  11.7 ± 1
2. CATACATTTAAAAAGTGTACGTATATGAAAAAAGGA [XGTACX_site6512]  11.7 ± 1.1
3. TAATATTTTTTGTGTACACATATATATATATATATA [CACACA_site5504]  11.7 ± 0.88
4. TGTTATAAGATTTATGTACACACATATACACCCCTC [CACACA_site8141]  11.6 ± 0.88
5. GTTTTATTTTCAATGTGTACTTATTATTTGATATAC [XGTACX_site6402]  11.6 ± 1.1
6. GCTTGTTCAAAAATGAGTACATACAAATAGTTGTAT [XGTACX_site1770]  11.5 ± 1
7. TTTTTTATTAGTATCTGTACACATTGGTATTTGTAT [XGTACX_site6682]  11.4 ± 0.69
8. GAATTCAACAAAAAAAGTACTCTACATAAAATAATG [XGTACX_site175]  11.4 ± 0.79
9. ACCTTTGTAGTTGGTCCACACACATATATGGAAGAA [CACACA_site8351]  11.4 ± 0.99
10. TTGAGTTGTATAAAAAGTACAAGGTTTTAACTAAAT [XGTACX_site1447]  11.4 ± 0.59
11. ACATTCTATCTAAGTACACACATTAATTTTTTTTTT [CACACA_site4106]  11.4 ± 0.78
12. CCATGCATACATTCTTGTACACATTTCTATTATGAG [XGTACX_site39]  11.3 ± 0.79
13. TTGTACATCTTTTGCACACGTAATGTTATTATAATA [CACACA_site1258]  11.3 ± 0.92
14. GTATATAAAAATTCATGTACATATTATTATTTTTAA [XGTACX_site658]  11.3 ± 0.71
15. TATGACCTTAGTAATTGTACACAAACATATTAATAT [XGTACX_site3340]  11.3 ± 0.7
16. TGGTATATTATTTTTTGTACACATAAATGAAACATT [XGTACX_site5345]  11.3 ± 0.79
17. ATATAGACACACACATGTACATATGCCAACGTGATA [XGTACX_site3828]  11.2 ± 0.95
18. TTATAAAAGGACTTCTGTACGAATTTTTTTTAATAA [XGTACX_site1411]  11.2 ± 0.94
19. AGAGAATAAATATAAAGTACATATATAAATATATAT [XGTACX_site5055]  11.2 ± 0.9
20. ATATATATATATATATGTACATATTATTATTTTGAT [XGTACX_site4752]  11.2 ± 0.73
21. AATGAAAGGATGCTGTGTACATATATATATATATAT [XGTACX_site7901]  11.2 ± 0.64
22. AAGAAAATTGTCTGAAGTACAAAACATTAATAATAT [XGTACX_site4864]  11.2 ± 0.78
23. TATATATATATATATTGTACTTATGTTTATATTCAT [XGTACX_site6258]  11.1 ± 0.63
24. GTATATGTACTATACGCACACACACCCACATATATA [CACACA_site9062]  11.1 ± 0.67
25. GGTTATTTCACAGAATGTACTTATTATATATAAAAT [XGTACX_site8886]  11.1 ± 0.79
26. TTCTTAAAATATGAAAGTACATAGGCATTATATATT [XGTACX_site8400]  11 ± 0.72
27. AATAATATTTATTTTTGTACATATGTGCATTATAAA [XGTACX_site3682]  11 ± 0.49
28. GAAACAATTTGATATTGTACATAAATAAATAAAAAC [XGTACX_site8869]  11 ± 0.54
29. TTATAATATTCATAAGGTACAGTTTATATATGTTAT [XGTACX_site8442]  10.9 ± 0.58
30. AATAATCATGATCAAAGTACGTATGATTAAAAAAAA [XGTACX_site4916]  10.9 ± 0.5
31. CGTATATCACCAACTAGTACATATAAATAAATAAAT [XGTACX_site8837]  10.9 ± 0.71
32. TTTTTTTTGTGTTCAAGTACAAAATTTTAAAGGTCA [XGTACX_site4011]  10.9 ± 0.55
33. AAGATTAGGTTAATTAGTACTTATTATATTGTAATG [XGTACX_site3653]  10.9 ± 0.35
34. CTTGTACCTAGAAATACACACAATTCTATAACTTAT [CACACA_site7355]  10.9 ± 0.69
35. AATTAGATGGATAAATGTACATATGTGAATATATTT [XGTACX_site85]  10.9 ± 0.42
36. TGTGTGTGTATATGTGTGCACATATAAAATAGAAGA [GTGCAC_site9714]  10.8 ± 0.6
37. TATATGTAAATGGACACACACATATATATATATATA [CACACA_site3659]  10.8 ± 0.59
38. GATCCATTATTGATCCGTACTTATTCATGTTATATA [XGTACX_site5946]  10.8 ± 0.45
39. AATGTAGAAATGGGTGCACACACATATATAATATAT [CACACA_site8799]  10.8 ± 0.68
40. GTACCTATTTCATACACACACACACGCAAACAAACA [CACACA_site6590]  10.7 ± 0.45
41. GTACCTATTTCATACACACACACACCCAAACAAACA [CACACA_site976]  10.7 ± 0.51
42. TACTTATATTGAAATGGTACAGATAAAAAAAAAAAA [XGTACX_site1407]  10.7 ± 0.64
43. AATTTACATATATATTGTACATTTATGTATATATAT [XGTACX_site4186]  10.7 ± 0.52
44. TATGTATATATTTGTGCACACCAAAGTTTGATTTTA [CACACA_site1861]  10.5 ± 0.22
45. CATTTGCACCCGCACACACACATAAAAAGAAAAATA [CACACA_site4350]  10.5 ± 0.61
46. TCAAGAATTATATAAACACACATACATACACCCATA [CACACA_site5126]  10.4 ± 0.42
47. TACTCACAATGGGGTCTACAAAAAAAAAAAAATAAA [XGTACX_negctrl_site229]  10.4 ± 0.64
48. TCATTTTTTTGTTTGGTGCGACTTGAAAATTTGATT  10.4 ± 0.28
49. ATATAACACAAGGGCACACATATACCTTTCCTTTTT [CACACA_site412]  10.4 ± 0.2
50. TATGCAAGGAACCACACACACACACCGAAATGTATA [CACACA_site4573]  10.3 ± 0.26
51. ATAAACTGAGTGGTTACACACAAAACCAATAACTTT [CACACA_site7601]  10.28 ± 0.092
52. TATATATATATATAAGCACACAAACAAAAAAAATTA [CACACA_site9293]  10.3 ± 0.35
53. TATATATATATATGTATGCACTTTAATTTTATAAGG  10.3 ± 0.61
54. TTTATATTATACGCACTAATATATATATATATATAT [TGCATGCA_negctrl_site47]  10.3 ± 0.38
55. ATTAATTTTATATATGCACACAAAATATGTTCATAT [CACACA_site9350]  10.2 ± 0.25
56. TTATAACTTTTGAGCACACACAAGCATATAAATATA [CACACA_site6933]  10.2 ± 0.16
57. ACATATACAAAACACACACACAACGTTTTAATAAAT [CACACA_site1979]  10.2 ± 0.21
58. CATTTGCCCAGGCACACACACATAAAAAGAAAAATA [CACACA_site356]  10.2 ± 0.28
59. CATATTATTATTTTGGTGCATACTTATATATATTTT  10.2 ± 0.18
60. AACATTGATAAATATAAACACACGAAAACAGACATA [CACACA_site490]  10.2 ± 0.18
61. TATTTATGTAGATACACACCCATGTTATATGGAGGT [CACACA_site3461]  10.14 ± 0.092
62. ATATATATTTATGTATCACACACAAAAAAAAAAAAT [CACACA_site7973]  10.1 ± 0.26
63. CTCAATATTATTACTACACACAAATTAAAATTTTCC [CACACA_site4203]  10.07 ± 0.085
64. ATATATATTATATGCACACTAATAAGACTATTTAAA [CACACA_site3554]  10.1 ± 0.23
65. AAGATAAATTATTATAAATCAATTGTGCCAACAATA [CACACA_negctrl_site144]  10.1 ± 0.18
66. TATATATGTATATATACACACAACGGTTATAAATAT [CACACA_site1128]  10.09 ± 0.021
67. AATATAAATAAAAACACACACACACCGATATATATA [CACACA_site5283]  10.1 ± 0.3
68. TAATTTTTTTTAATAACACACATATAAATATAAATA [CACACA_site6521]  10.1 ± 0.35
69. GTGCCCTTTTTAATAACATGCAAATAACATATTTAT [TGCATGCA_site709]  10.1 ± 0.18
70. AGTTTATTTATATACACACACATATAAATATTATAG [CACACA_site6522]  10.03 ± 0.064
71. AAATACTGTAAAAAAGCATGCCACTAATAATAATTA [TGCATGCA_site759]  10
72. ATATGTGTTATTTATACATGCAGAAGAATATCTATT [TGCATGCA_site828]  10 ± 0.13
73. ATATAGATTCGACACACACACAAAAAAAAAAAAAAA [CACACA_site7677]  10 ± 0.47
74. AATTTAATATAATGCACACATAAAAAAAAAAAATTC [CACACA_site1504]  10 ± 0.23
75. AGCTTGTGGATGCAGGTGCTACATTTGTTCTATAAT [GTGCAC_site9645]  10.01 ± 0.014
76. AATGTGTAGACACGCACACACAAAAAAATATATATA [CACACA_site5595]  10 ± 0.18
77. GAACGAAACTTTCTTACACACATTGAAATTTTTTTC [CACACA_site1779]  9.965 ± 0.007
78. TTATAATAAACCTATACACACATAAATAAATAAATA [CACACA_site2581]  9.945 ± 0.007
79. TGGTCTTTTAAACAAAAATATAAATTTTTAAATATG [CACACA_negctrl_site392]  9.94 ± 0.23
80. AAAAAAAAAAAAAACACACAAACATCAAATTATTAT [CACACA_site1838]  9.91 ± 0.028
81. TATAAAAATATTTCTACACACATTAAAATATATATA [CACACA_site4770]  9.845 ± 0.064
82. ATATTGATGTATTGTTTTTTTTTTTTCTTTTTTTTT [CACACA_negctrl_site1238]  9.81 ± 0.16
83. ATATATATAATAAACACACACATATACATAGATGTA [CACACA_site5841]  9.805 ± 0.007
84. TTTTGTAATGTGAATATTTGTATATTATTTGTATAT [CACACA_negctrl_site1677]  9.79 ± 0.028
85. ACTATATAATATAATATATTATAATATATTATATTA [GTGCAC_negctrl_site140]  9.77 ± 0.15
86. ACATATATATAATATATATATCATCATATTTTCTTA [CACACA_negctrl_site853]  9.76 ± 0.085
87. ATGATCATAAAACACACACACAAAAAAAAAAAAAAA [CACACA_site1805]  9.71 ± 0.21
88. AATAAATAAATATATATATATATATAATATCATAAA [CACACA_negctrl_site337]  9.62 ± 0.085
89. GAGTATATGATATATATATATATATAAAAAAAAAAA [GTGCAC_negctrl_site99]  9.59 ± 0.3
